Some of the results follow. At the low end of the ranking, values are background and their order means little. The protein was read in a cell extract, so binding may be indirect.

The assay deals with T1, HNF4alpha8 (COS-7 nuclear extract) (UniProt P41235-5).
T1 sequence: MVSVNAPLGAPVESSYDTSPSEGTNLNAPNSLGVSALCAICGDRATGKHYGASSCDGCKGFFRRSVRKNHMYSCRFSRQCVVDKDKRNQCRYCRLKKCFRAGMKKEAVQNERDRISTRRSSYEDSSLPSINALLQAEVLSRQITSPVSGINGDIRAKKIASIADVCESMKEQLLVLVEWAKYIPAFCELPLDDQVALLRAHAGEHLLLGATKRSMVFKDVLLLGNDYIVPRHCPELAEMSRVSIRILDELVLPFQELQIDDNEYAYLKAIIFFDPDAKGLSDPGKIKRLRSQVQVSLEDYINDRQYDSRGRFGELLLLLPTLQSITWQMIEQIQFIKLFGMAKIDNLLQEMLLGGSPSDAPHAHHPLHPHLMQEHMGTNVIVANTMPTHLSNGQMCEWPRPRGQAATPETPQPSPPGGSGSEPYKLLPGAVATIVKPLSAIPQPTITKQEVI
Description: protein-binding microarray. The following applies: COS-7 nuclear extract on double-stranded Agilent 4x180k PBM; binding buffer, salt, pH and temperature not given; high values mean tight binding; double strand, one strand shown; sequences stand for … in …GCCTAGGGAGATTAGAGTATCGGTCGA
Regarding GGGCTCCCACCAGGGGGAGGCTCAGAGTCT, the binding signal (log2 normalized intensity) is -1.34. With ACATGAGCTAGTGCTAAAGGTCATATCCAA the figure was 4.49; with CACAAGCAATGGCTGGGTCTAAGGGCAAGT, 1.18; with TGCCCCAGTCCTTCAGTCCTTCCCCCGCCA, 5.33. With ATTGGACTCTCTCATTCTGATATGCACTGT the figure was 2.06; with TCTGTCTTCGGGCGGCGGCCTCTGGGAAAT, -0.905. With AGTAATGTGATTTAATTCTGAGTTCCAATA the figure was 0.268; with GAAGTGATCCTTATCAGTGTGAGCTACAAG, 0.348.

Regarding TATTAATGAGGCAAAGGTCAGGAGTTCCAT, the binding signal (log2 normalized intensity) turned out to be 3.8.

Regarding CCAGTAGAGAAACAAATCTGCTTTCTACCC, the binding signal (log2 normalized intensity) is -0.982. For the sequence TGACTACCAGGTTCTGTACTTTGGAACCTG, the binding signal (log2 normalized intensity) was determined as 7.01. To AGCCTGACCATCACCACTTCAAGCTTGGTA belongs -1.34; to GTGTTTCTTGTTTCAGAGTAAATACGAACC, 1.46; to GACCCTCTGCCCCCTACACAGAGGAGCGAC, 4.18. To GGGATCCGGCCTTCCCGGGTGGACGTCCCC belongs 0.694; to TTCCTGTAAATAATTAAGACCAAACTGCTG, -1.23; to TGGCACTGAAGAATGTCTAAATCTGAAGGA, -0.983. For CTAGATGGCTGTGACTACTTCCGGACATGG, the binding signal (log2 normalized intensity) came to 0.249. For AAGTCTTAGTTTCCTTATCTGTAAAATGGA, the binding signal (log2 normalized intensity) worked out at 1.73. With TGGCATGCAGCAGGGGAATGGAGACACACC the figure was -1.21.

For the sequence TTCCCGGCCTGGCCACTCCGTTTGCTATGG, the binding signal (log2 normalized intensity) was -1.26. As to GACAAAATGCCCAGGATTCCTTTTTCACTG, the binding signal (log2 normalized intensity) was -1.35.

Consider AAGATTAGCTCACAGGAAAGGAGACTAAAG, for which the binding signal (log2 normalized intensity) was -1.3.

With ATGAGAACTTCTTCCAATGAAAGGTTAACC, the binding signal (log2 normalized intensity) was 2.08.

With ATCTGAATGTATGGGCTATTTATGACGGTG, the binding signal (log2 normalized intensity) stood at 1.06. In the case of CCCGTGTCTCCCTACCTCTGCACAGCTCCA, the binding signal (log2 normalized intensity) was -1.2. On to CAAACACAAAAAGCGGACAAACCAGTCCCA, for which the binding signal (log2 normalized intensity) is -1.37. Consider CTTTGAGATTTGCATTCATGATCTTAGATA, for which the binding signal (log2 normalized intensity) worked out at 0.242. Consider CAGACAGGCATGACAGAGTGTCCTGCCCCC, for which the binding signal (log2 normalized intensity) stood at 5.11. As for AACTTCGGGAATCTGACCTTTGGGACATTC, the binding signal (log2 normalized intensity) stood at 6.32. With TCCCTAAGATTTATCCCAAATGTTTGCACT, the binding signal (log2 normalized intensity) was 1.34. For CATGTTAATTTAAATAACAAGGATAGCGTC, the binding signal (log2 normalized intensity) is -1.21. As to TGCAACATTAAAACAACCCAGAGAATGCTA, the binding signal (log2 normalized intensity) was -1.33. As for TCCCTGGGTACAACTTTATCTAAGGGTTTC, the binding signal (log2 normalized intensity) worked out at 1.13. For TGAGTGTGTTTCTTGTTTCAGAGTAAATAC, the binding signal (log2 normalized intensity) was determined as 1.35.

For the sequence GAGATTTCAGCCGCTTTGAGGTCAATGGTA, the binding signal (log2 normalized intensity) was 2.54. For the sequence ATATTTGTCTTCCTATCTCCTTACTCTTTG, the binding signal (log2 normalized intensity) was 0.624. On to AAGACCAAACTGCTGAAGATAAGACTTCCT, for which the binding signal (log2 normalized intensity) is -1.23. GCCAGCAAGGACTTTGAAGGCCCCAATTGC: the binding signal (log2 normalized intensity) is 0.264. To GTTTGTCAAGCTCAATGCAACCAGTTGGTG belongs 0.473; to ATCAAAGGTCACTTTACAGATAAAGAAACC, 2.91; to ACAGAGTAAAGCCACTGCCTAGATAAAAGG, -1.35. With CTTTGCCCAACCCTCTCCCACTCCCCTCCT the figure was 4.85; with GGAATCTGAACTTTTGGCTCCCTGGGGTTA, 2.05. As for CCTCCCGGAGGACCCGACCGGAGAGGGCGA, the binding signal (log2 normalized intensity) was -1.08. To AAGGGTTCAGGGCAGAAGAGGTTATCACAG belongs 0.0363; to ATGATATGGTCAGTGTTGATAAGAAAGCTG, 0.0521.

With AAGGCTGCTGCCTGAAAGGCCAAGCCAGTT, the binding signal (log2 normalized intensity) was -1.28.

In the case of CCCTTCCTGCTTCCAGGCTTGTACCTTGAC, the binding signal (log2 normalized intensity) was found to be 3.23. Turning to CCCTAGTGACTCTAGGAACCTTTCTCCATA, the binding signal (log2 normalized intensity) is -1.32. Turning to ATAAGGAGGGTAACAATGCTGATGGGGACC, the binding signal (log2 normalized intensity) is -1.32.

On to GGAAAAGTAACACAGTAAGAGACTTCACCA, for which the binding signal (log2 normalized intensity) was -1.39. Consider TTCAGGAATGCACCCTTTTGACCACACAGC, for which the binding signal (log2 normalized intensity) stood at 1.77.

Regarding TCTTGCCCTTTGGTCTGGAACACAGAGGGA, the binding signal (log2 normalized intensity) came to 2.5. As for ATGGGGCCAGATTGAGAAACACATTCTTAG, the binding signal (log2 normalized intensity) is -0.973. Turning to TGTTGGGATTAAGGAGAAGGCTCCCAAGGT, the binding signal (log2 normalized intensity) is -1.32. For TTCTTTTTTTCTTTTTTTCCCCCTCACTGA, the binding signal (log2 normalized intensity) amounted to 4.2. In the case of CATCTGCCACTCATAGAACTGTCGCAGAAA, the binding signal (log2 normalized intensity) is -1.39. For the sequence GGGCTAAACATCAAGACAGGTGAGAGAGCT, the binding signal (log2 normalized intensity) was -1.27. Consider CGCTTGTCTTACGGAAGAATGGAATTCCAG, for which the binding signal (log2 normalized intensity) worked out at 1.7. As for GATAGGAGATAAGGGGGTCAGTTCAAAAGA, the binding signal (log2 normalized intensity) was found to be 1.06.

Turning to CTATGGGAAAACAGGCTCAGCAAAGTCAGG, the binding signal (log2 normalized intensity) is -1.34. Regarding AACACACAAGGCCCACTCCTCCCTCAGGGA, the binding signal (log2 normalized intensity) was -1.2. Regarding AATATCGCTTGTCTTACGGAAGAATGGAAT, the binding signal (log2 normalized intensity) worked out at 1.09.

For CCAGAATAGCCTCTGCAACTCAGAGACAGG, the binding signal (log2 normalized intensity) was -1.49. For the sequence TGAAAAAGGGTTGTGCAAACTTCAGCAGAA, the binding signal (log2 normalized intensity) is -1.38. For TTCACCCCATTTTGTCCCTCCCTGCAGCTG, the binding signal (log2 normalized intensity) amounted to 3.98. On to AATAGCTGAACTATTTAAGGCCTTTGAAGT, for which the binding signal (log2 normalized intensity) is -0.906. For the sequence ACCAGAGACCTTTGTTCACTTGTTTATCTG, the binding signal (log2 normalized intensity) was 2.97. AGGTCCCCAAGAGCCTTATCACATTACAGG: the binding signal (log2 normalized intensity) was -1.2. To GTCTTTAGAGTAACCATTCTTTCTGAGAAA belongs -0.925; to CCTCAAAGGTTAGGGGGATTCTGGCTAAAC, -1.19; to GAGAAACAGGGGCTTAAACCTTTAATGATG, -1.17. Consider CAAACATACTTAGGATTTTTGTGCCTCTTT, for which the binding signal (log2 normalized intensity) came to 0.873. AATCAGTCTGATTGGTTGCAGAAGGCAGCC: the binding signal (log2 normalized intensity) is -0.0313. Take TATCATTAGATTCCATGCAGCAGCATCCAG: the binding signal (log2 normalized intensity) is -1.3. Turning to GATAATATTTTTACCAGGTCAGAGGACTTC, the binding signal (log2 normalized intensity) worked out at 2.51. For CTCTTTTGGATTTTTCCATATCTGTGTGCC, the binding signal (log2 normalized intensity) was found to be 0.756. With CAAAGCAGGAGATGTGTGAAGGACACAGAA the figure was -1.3; with TGCTTTCAGGTGTGAACCCAGGCAAAGTCC, 4.24; with TGGCACTTTGGACTTGAGAAGACATAGTTT, 2.88.

Turning to AAGGGGTCAGACCAGACAGCACCTCTCTGA, the binding signal (log2 normalized intensity) is -1.23. Regarding AAAGAAGAAGATGATATGGTCAGTGTTGAT, the binding signal (log2 normalized intensity) was 1.32. Regarding ATCTCTAAGCTACTGAAAATGACCTTTGTT, the binding signal (log2 normalized intensity) is 6.73. With TATCAGAAGAATCTGTATCAGCCTGTGACA the figure was -1.34; with CTTACAGTCTTGGATCGGGATGATCAATGT, 1.43; with GGCAGGAGTCAACAGGCAGAAGAATGGATG, -1.24. To CAAGAACAAAAACTGTTTCTATGTGACCTT belongs 4.5; to GCTGCCGCAGATCCCCGCTCCCCTCCCCCA, 6.43. With TGGCAGAATCAAGGCAAGCCTTATCACTGT the figure was -1.27. As to GAGGGGGTTAAAGGTTATTTGCTCACCAGT, the binding signal (log2 normalized intensity) stood at 4.45. For the sequence TCTCAGCCTGGCTAAAACCCTGGCCACTCC, the binding signal (log2 normalized intensity) was -1.3. As for GAAGCGAGGCCTCATTGGCCAGTATCCGCC, the binding signal (log2 normalized intensity) is -1.23.

(Values after paper PMC10726135.)
